Test results as given in the supplement of paper PMC7826260.
Some of the results follow. Cleavage of a single-stranded DNA pool by Rep nickase domains was read by sequencing at 3 µM enzyme and 37 °C for 1 h; the strands have 90 letters, of which the middle is given. A value is the log2 ratio of uncut reads to the pool without enzyme; uncut sequences lie near 0, cut ones below; no hit call is given. The scaling is to total reads, so uncut sequences can rise above 0 when many others are cut.

What was measured:
Assay in all cases: uncleaved DNA left, log2 of reads against the no-enzyme library (log2 ratio); higher = less cleavage (more negative = more Rep cleavage of the k-mer); sequences stand for … in CTCGTCCG…ACCGGAGA
[1] = tested on: T1, Rep nickase domain of Muscovy duck circovirus
T1 sequence (residues 1-111, tag not shown): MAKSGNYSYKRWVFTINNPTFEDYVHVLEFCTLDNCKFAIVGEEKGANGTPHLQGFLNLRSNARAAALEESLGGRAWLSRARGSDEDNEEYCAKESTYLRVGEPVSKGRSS
Protocol: (§1)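 A pool of 90-nt single-stranded DNAs with seven random bases just before the constant AC of the nick site (name = the seven bases) was cut by 3 µM recombinant His6-SUMO-tagged Rep nickase domain (300 nM DNA, 50 mM HEPES pH 8.0, 50 mM NaCl, 1 mM MnCl2, 1 h, 37 °C, three replicates). Uncut DNA was amplified and sequenced.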

[2] = tested on: T2, Rep nickase domain of banana bunchy top virus
T2 sequence (residues 1-94, tag not shown): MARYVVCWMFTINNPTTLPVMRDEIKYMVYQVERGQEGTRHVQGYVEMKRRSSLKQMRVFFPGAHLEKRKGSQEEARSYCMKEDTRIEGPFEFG
Protocol: as §1

[3] = tested on: T3, Rep nickase domain of cabbage leaf curl virus
T3 sequence (residues 1-116, tag not shown): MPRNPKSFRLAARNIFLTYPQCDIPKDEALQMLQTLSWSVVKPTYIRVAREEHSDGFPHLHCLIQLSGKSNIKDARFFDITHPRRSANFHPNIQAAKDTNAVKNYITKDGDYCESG
Protocol: as §1

[4] = tested on: T4, Rep nickase domain of chickpea chlorotic dwarf virus
T4 sequence (residues 1-124, tag not shown): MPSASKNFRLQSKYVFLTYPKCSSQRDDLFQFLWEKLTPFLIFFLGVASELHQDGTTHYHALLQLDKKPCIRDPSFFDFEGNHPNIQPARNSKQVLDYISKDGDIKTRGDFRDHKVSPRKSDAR
Protocol: as §1

[5] = tested on: T5, Rep nickase domain of faba bean necrotic yellows virus
T5 sequence (residues 1-98, tag not shown): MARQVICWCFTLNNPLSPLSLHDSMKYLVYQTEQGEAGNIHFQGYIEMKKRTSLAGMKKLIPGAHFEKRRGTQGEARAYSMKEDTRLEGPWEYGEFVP
Protocol: as §1

[6] = tested on: T6, Rep nickase domain of maize striate mosaic virus
T6 sequence (residues 1-117, tag not shown): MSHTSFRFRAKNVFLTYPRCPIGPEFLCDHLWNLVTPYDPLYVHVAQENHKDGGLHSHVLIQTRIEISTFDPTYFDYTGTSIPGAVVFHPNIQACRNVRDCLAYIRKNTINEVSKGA
Protocol: as §1

[7] = tested on: T7, Rep nickase domain of porcine circovirus 2
T7 sequence (residues 2-116, tag not shown): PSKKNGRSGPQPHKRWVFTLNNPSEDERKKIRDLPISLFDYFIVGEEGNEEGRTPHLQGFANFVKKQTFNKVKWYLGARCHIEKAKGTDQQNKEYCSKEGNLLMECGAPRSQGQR
Protocol: as §1

[8] = tested on: T8, Rep nickase domain of tomato golden mosaic virus
T8 sequence (residues 1-124, tag not shown): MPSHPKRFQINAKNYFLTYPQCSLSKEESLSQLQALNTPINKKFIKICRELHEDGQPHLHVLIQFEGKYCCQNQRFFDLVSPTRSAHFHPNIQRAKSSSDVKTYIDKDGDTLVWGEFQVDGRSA
Protocol: as §1

[9] = tested on: T9, Rep nickase domain of tomato yellow leaf curl virus
T9 sequence (residues 1-136, tag not shown): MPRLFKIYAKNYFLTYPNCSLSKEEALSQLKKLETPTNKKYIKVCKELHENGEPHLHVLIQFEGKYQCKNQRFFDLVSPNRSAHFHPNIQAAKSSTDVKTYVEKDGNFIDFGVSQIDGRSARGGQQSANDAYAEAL
Protocol: as §1

[10] = tested on: T10, Rep nickase domain of wheat dwarf virus
T10 sequence (residues 1-137, tag not shown): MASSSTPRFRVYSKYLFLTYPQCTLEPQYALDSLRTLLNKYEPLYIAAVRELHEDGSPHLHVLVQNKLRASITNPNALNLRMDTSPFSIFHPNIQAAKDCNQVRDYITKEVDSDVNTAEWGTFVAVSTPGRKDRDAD
Protocol: as §1

| Sequence | uncleaved DNA left (log2) [1] | uncleaved DNA left (log2) [2] | uncleaved DNA left (log2) [3] | uncleaved DNA left (log2) [4] | uncleaved DNA left (log2) [5] | uncleaved DNA left (log2) [6] | uncleaved DNA left (log2) [7] | uncleaved DNA left (log2) [8] | uncleaved DNA left (log2) [9] | uncleaved DNA left (log2) [10] |
| --- | --- | --- | --- | --- | --- | --- | --- | --- | --- | --- |
| AGCGCGT | 0.0234 | -0.0191 | -0.0862 | 0.181 | 0.0201 | 0.548 | 0.101 | 0.0153 | -0.037 | 0.0341 |
| CTGGACG | 0.0984 | 0.109 | -0.303 | -0.325 | 0.173 | -0.808 | 0.203 | 0.132 | 0.0629 | 0.0165 |
| CATCTGT | 0.101 | 0.00516 | -0.0265 | -0.43 | -0.201 | -0.377 | -0.0359 | -0.0658 | 0.0483 | -0.0523 |
| CTGGGCG | -0.148 | -0.125 | -0.837 | 0.154 | -0.034 | -0.704 | 0.122 | -0.196 | -0.0151 | -0.2 |
| TTAGTCA | 0.0598 | 0.169 | 0.327 | -0.33 | 0.0812 | -0.0513 | 0.067 | 0.0405 | 0.193 | 0.175 |
| TCAGCGA | 0.0161 | -0.0999 | -0.566 | -0.304 | 0.00152 | -1.04 | 0.146 | -0.0579 | 0.0487 | -0.118 |
| CACCACG | 0.0916 | 0.179 | -0.789 | 0.000175 | 0.19 | -0.736 | 0.0498 | 0.0892 | 0.0863 | 0.173 |
| ATACTGG | 0.000739 | 0.0317 | -0.0739 | -0.0629 | -0.0214 | -0.581 | 0.0824 | 0.0194 | 0.0205 | -0.00304 |
| ACAGAGA | 0.0464 | -0.148 | 0.0517 | 0.478 | 0.0918 | -0.731 | 0.0967 | 0.142 | -0.0317 | -0.11 |
| TAGGGGA | -0.0185 | 0.0853 | 0.589 | 1.02 | 0.0763 | 1.6 | 0.15 | 0.0373 | -0.121 | 0.0915 |
| CCAATTC | 0.0424 | 0.00779 | 0.00307 | -0.187 | 0.133 | -1.03 | 0.141 | 0.112 | -0.0306 | -0.0133 |
| TTGATAC | -0.229 | -0.0639 | -0.0513 | -0.791 | 0.00735 | -0.602 | -0.3 | -0.0131 | -0.0232 | -0.0846 |
| CTTACTC | -0.084 | -0.0105 | -0.0992 | -2.32 | -0.124 | -0.662 | 0.0765 | -0.151 | 0.0088 | -0.0275 |
| GTCATCT | -0.0672 | 0.0688 | 0.316 | 0.671 | -0.0327 | 1.62 | 0.0488 | 0.0328 | 0.0609 | 0.152 |
| TCCGCAT | -0.133 | -0.219 | -0.0164 | -0.282 | -0.302 | -0.466 | -0.118 | -0.294 | -0.0786 | -0.155 |
| ACTACGA | -0.011 | -0.161 | -0.157 | -0.496 | -0.0309 | -1.01 | 0.135 | 0.0106 | -0.126 | -0.142 |
| CCCGTAT | 0.0128 | -0.0202 | 0.209 | -0.391 | 0.139 | -0.141 | 0.135 | 0.209 | 0.072 | -0.0141 |
| TTACTTG | 0.106 | 0.00909 | -0.409 | -2.05 | 0.0292 | -0.787 | 0.00764 | -0.116 | -0.0414 | -0.0527 |
| GGAATTG | 0.051 | 0.0344 | 0.213 | 0.664 | -0.00222 | 0.411 | 0.092 | 0.0127 | -0.0116 | 0.0416 |
| TCCGGCA | 0.096 | 0.081 | 0.0581 | -0.0831 | 0.0232 | -0.499 | -0.111 | -0.0146 | 0.0072 | -0.0702 |
| AGTCGCA | -0.0628 | -0.135 | -0.176 | -0.299 | -0.0913 | -0.518 | -0.69 | -0.0401 | -0.089 | 0.0012 |
| CCCGGTG | 0.198 | -0.0614 | -0.343 | -0.413 | 0.222 | -0.656 | 0.295 | 0.212 | 0.215 | -0.0725 |
| ATGAGGA | 0.157 | 0.0225 | 0.215 | 0.552 | 0.025 | -0.16 | 0.172 | 0.132 | -0.0605 | 0.0253 |
| AATACTA | -0.044 | -0.0627 | -0.259 | -2.65 | 0.05 | -0.605 | -0.207 | 0.0337 | -0.0696 | -0.013 |
| TACCCCA | -0.156 | 0.0131 | -0.238 | -2.41 | -0.0183 | -0.451 | -1.4 | -0.0548 | -0.0384 | -0.00752 |
| CCTTCAT | -0.116 | -0.0482 | -0.158 | -1.11 | -0.117 | -0.886 | -0.404 | -0.169 | -0.159 | -0.0869 |
| TACGCTC | -0.0651 | -0.0965 | -0.278 | -1.28 | 0.0211 | -0.664 | -0.085 | -0.233 | -0.0752 | -0.0583 |
| AACCCGG | -0.13 | -0.0702 | 0.299 | 1.07 | -0.119 | 0.908 | -0.128 | -0.0371 | -0.167 | -0.0622 |
| GTCCGGC | -0.0244 | 0.085 | 0.323 | 0.748 | -0.027 | 1.08 | 0.11 | 0.112 | 0.0538 | 0.057 |
| CAAACCG | -0.0517 | 0.00801 | -0.864 | -0.215 | 0.0314 | -0.877 | 0.0964 | 0.0426 | 0.0905 | -0.0479 |
